# According to PubChem BioAssay AID463173 (ICCB-Longwood Screening Facility, Harvard Medical School, 2010):
# Out of some 52,000 compounds screened, about 4,300 (8.3%) were called active. No stated cut-off is given here; in the data, active means survival mostly below about 52% (no sharp cut-off); inactive means mostly above about 56%. The list shows a part of the results.
# Tested on: DeltatarO mutant
# Assay: S. aureus survival, RN4220 and DeltatarO strains – OD600, teichoic acid synthesis inhibitors, primary screen (AID 463173)
# Conditions: S. aureus RN4220 wild type/DeltatarO growth, OD600, 18 h, hits give low values, screened at 18.75 µg/mL (by protocol)
row,SMILES,survival
1,COc1ccc(C(=O)N(Cc2ccco2)Cc2ccco2)cc1,inactive: 58%
2,COC(=O)c1c(N)n(-c2cc(Cl)cc(Cl)c2)c2nc3ccccc3nc12,active: 44%
3,CN1CCC(OC(=O)COc2ccc(F)cc2)CC1,inactive: 79%
4,Cc1noc(/C=C/c2ccccc2F)c1S(=O)(=O)N1CCC(C(=O)N(C)Cc2ccco2)CC1,inactive: 94%
5,COc1ccc(NC(=O)Cn2c(=O)n(CCc3ccccc3)c(=O)c3ccccc32)cc1,inactive: 83%
6,COc1ccc2nc(NC(=O)c3cc(=O)c4ccccc4o3)sc2c1,inactive: 50%
7,COc1cccc(CNS(=O)(=O)c2cc3c(cc2C)n(C)c(=O)c(=O)n3C)c1,inactive: 113%
8,O=C(c1cccc(Cl)c1)N1CCN(CCc2ccccn2)CC1,inactive: 57%
9,CCCCNC(=O)c1c(C)oc2ncn(CC(C)C)c(=O)c12,active: 6%
10,CCOc1ccc(NC(=O)Cn2nc(-c3ccncc3)ccc2=O)cc1,inactive: 89%
11,Cc1ccccc1OCC(=O)Nc1cc(-c2cccc(Br)c2)nn1-c1ccccc1,inactive: 79%
12,O=C(NCc1nc2cccnc2n1Cc1ccc(F)cc1)c1ccccc1C(F)(F)F,inactive: 77%
13,CCc1ccc(NCc2cccn2-c2nnc(N3CCCCCC3)s2)cc1,active: -6%
14,CCOc1ccc(NC(=O)CSc2nnc(CNC(=O)c3c(F)cccc3Cl)o2)cc1,inactive: 96%
15,COc1ccc(OC)c(-c2cc(C(=O)Nc3cnn(Cc4ccc(Cl)cc4Cl)c3)no2)c1,inactive: 64%
16,COc1ccc(S(=O)(=O)NCC(c2ccco2)N2CCOCC2)cc1C (stereo unspecified),inactive: 80%
17,COc1ccccc1N1CCN(S(=O)(=O)c2c(C)sc3ncn(CC(=O)Nc4ccccc4F)c(=O)c23)CC1,inactive: 70%
18,CCOc1ccc(/C=C/c2nc3ccccc3n2S(=O)(=O)c2ccc(Br)cc2)cc1,inactive: 59%
19,COc1cccc(NC(=O)Cn2c(=O)n(-c3ccc(Cl)cc3)c(=O)c3sc4ccccc4c32)c1,inactive: 88%
20,O=C(Cn1c(=O)nc(-c2ccccc2)c2cc(Cl)ccc21)NCCc1ccc(Cl)cc1,inactive: 84%
21,CCn1c(=O)c(=O)n(CC)c2cc(N3CCCCC3)c(NC(=O)c3cccc(F)c3)cc21,inactive: 83%
22,CC(C)(C)c1nnc(NC(=O)CS(=O)(=O)Cc2ccccc2)s1,inactive: 95%
23,CCOC(=O)CNc1nnc(SCC(=O)OCC)[nH]c1=O,inactive: 71%

row,SMILES,survival
1,Cc1ccc2c(c1)N(C(=O)NCc1ccccc1)CCO2,inactive: 79%
2,CCC(C)NC(=O)c1ccc2c(=O)n3c(nc2c1)CCCCC3 (stereo unspecified),inactive: 86%
3,Cc1ccc(NC(=O)Cn2nnc3sc(-c4ccccc4)cc3c2=O)cc1Cl,inactive: 52%
4,COC(=O)c1ccc(Cl)cc1NC(=O)N(Cc1ccc(C)o1)C1CCN(C(C)=O)CC1,inactive: 95%
5,COc1ccc(C(=O)NCC2(N3CCN(C)CC3)CCCCC2)cc1,inactive: 69%
6,COc1ccc(C)cc1NS(=O)(=O)c1ccc2c(c1)n(C)c(=O)n2C,inactive: 89%
7,CCC(CC)c1nn2c(=O)cc(COc3ccc(NC(=O)c4cccc(Cl)c4)cc3)nc2s1,inactive: 79%
8,CCO/C(C)=N\Oc1cc(=O)oc2ccccc12,inactive: 82%
9,COc1ccc(Cl)cc1NC(=O)CCC(=O)N1CCOc2ccccc21,inactive: 60%
10,Cc1nc2ccc(NC(=O)C3CC3)cc2c(=O)n1Cc1ccc(F)cc1,inactive: 74%
11,COc1ccc(NC(=O)Cn2c(=O)n(Cc3ccc(C(=O)NCc4ccccc4Cl)cc3)c(=O)c3ccccc32)cc1OC,inactive: 97%
12,COc1ccc(NC(=O)CSc2nc(-c3ccco3)cc(C(F)(F)F)n2)cc1,inactive: 86%
13,Cc1cc2c(N=NC(=O)C3CC34CCC4)c(O)[nH]c2cc1Br (stereo unspecified),inactive: 57%
14,CC(C)CN1C(=O)c2ccc(Br)cc2C1=O,inactive: 67%
15,COC(=O)c1ccc(C(C)N(C)C)o1 (stereo unspecified),inactive: 93%
16,CCCN1Cc2cccc(C(=O)Nc3cc(C)cc(C)c3)c2C1=O,inactive: 85%
17,O=C(O)c1ccc(CO)o1,inactive: 93%
18,CC(=O)Nc1ccc(C)cc1-c1nc2ccccc2n(CC(=O)Nc2cc(Cl)ccc2C)c1=O,inactive: 78%
19,CCOC(=O)c1c(C)oc2ccc(N(C(=O)c3ccncc3)S(=O)(=O)c3ccc(CC)cc3)cc12,inactive: 60%
20,COc1ccc(OC)c(S(=O)(=O)Nc2ccc3c(c2)n(C)c(=O)n3C)c1,inactive: 115%
21,O=C(CN1C(=O)COc2ccc(S(=O)(=O)NC3CCCC3)cc21)Nc1ccc(Cl)cc1F,inactive: 78%
22,CCOC(=O)c1c(C)[nH]c(CCC(=O)Nc2cc(Cl)ccc2OC)c1C,inactive: 94%
23,CN(C)N1C(=O)CC(NCc2ccccc2)C1=O (stereo unspecified),inactive: 95%

row,SMILES,survival
1,CCOC(=O)c1cccc(NC(=O)CCc2nc3cccnc3n2-c2ccccc2)c1,inactive: 95%
2,CCOc1ccc(NC(=O)C2(c3cccs3)CCOCC2)cc1,inactive: 84%
3,Cc1cc(C)c2sc(NC(=O)c3ccc(S(=O)(=O)N4CCCC4)cc3)nc2c1,active: 37%
4,O=S(=O)(NC1CCCC1)c1cccs1,inactive: 71%
5,COc1ccccc1C(=O)Nc1nc2nc(C)cc(=O)n2[nH]1,inactive: 96%
6,CCOc1cccc(C(=O)N(Cc2ccc(C)o2)C2CCS(=O)(=O)C2)c1 (stereo unspecified),inactive: 96%
7,COc1cccc(CNC(=O)c2cc(-c3ccc(Cl)cc3)n[nH]2)c1,inactive: 107%
8,CCC(CC)c1nn2c(=O)cc(COc3ccc(NC(=O)c4cccc(C)c4)cc3)nc2s1,inactive: 120%
9,O=C(CCC(=O)N1CCSc2ccccc21)Nc1ccc(Cl)cc1,inactive: 68%
10,COc1ccccc1CNS(=O)(=O)c1cc(Br)cc2c1N(C(=O)C1CC1)CC2,inactive: 58%
11,COc1ccc(CNc2nc(-c3ccc(Cl)cc3)nn2S(=O)(=O)c2ccc(C)cc2)cc1,inactive: 62%
12,Cc1nc(N2CCOCC2)c2c(C(=O)NCc3ccc(Cl)cc3)c(C)oc2n1,inactive: 107%
13,CN(C)S(=O)(=O)N(CC(=O)Nc1ccc(C(F)(F)F)cc1)c1ccccc1,inactive: 70%
14,Cc1ccc(OCCSc2nc3ccc(NC(=O)c4cccs4)cc3s2)cc1,inactive: 88%
15,Cc1ccc(S(=O)(=O)N2CC=C(c3c(C)n(CC(=O)N4CCCC4)c4ccccc34)CC2)cc1C,inactive: 72%
16,COc1ccc(C(=O)Oc2ccc3oc(=O)sc3c2)cc1,inactive: 95%
17,Cc1sc(-n2cccc2)c(C(C)NC(=O)Nc2cccc(C(F)(F)F)c2)c1C (stereo unspecified),active: 23%
18,COc1cc(OC)cc(C(=O)NCCc2csc3nc(-c4ccccc4F)nn23)c1,inactive: 84%
19,Cc1ccc(-n2c(=O)c3c(c4cc(C)ccc4n3C)n(CC(=O)Nc3ccc(F)cc3)c2=O)cc1,inactive: 97%
20,CC(=O)c1ccc(N2CCN(C(=O)c3cn(C)c(=O)c4c3c3ccccc3n4C)CC2)cc1,inactive: 52%
21,CCS(=O)(=O)N1CCc2cc(C(=O)Nc3ccc(Br)cc3F)ccc21,inactive: 98%
22,CCc1cccc(C)c1NC(=O)c1ccc2c(c1)CCN2S(=O)(=O)c1ccc(Cl)cc1,inactive: 67%
23,COc1ccc(CNC(=O)COCc2cc(-c3ccc4c(c3)OCO4)on2)cc1,inactive: 94%

row,SMILES,survival
1,COCCCNc1nc2c(c(=O)n(Cc3ccc(F)cc3)c(=O)n2C)n1C,inactive: 132%
2,Cc1cc(C)cc(NC(=O)CCc2c(C)nc3nc(CNC(=O)c4cccc(F)c4)nn3c2C)c1,inactive: 64%
3,CCCCC(=O)Nc1nnc(S(=O)(=O)N(C)Cc2ccc(Cl)cc2)s1,inactive: 102%
4,COc1ccc(N(Cc2cccs2)C(=O)c2ccco2)cc1,inactive: 73%
5,O=c1cc(COc2ccc(Cl)cc2Cl)nc2scc(-c3ccccc3)n12,inactive: 67%
6,COc1ccccc1OCC(=O)N(Cc1ccco1)Cc1ccccc1F,inactive: 64%
7,CC(CNC(=O)c1ccc2c(c1)nc1n2CCCCC1)c1ccccc1 (stereo unspecified),inactive: 62%
8,CCOc1ccc(CC(=O)NC2CC(=O)N(c3cccc(F)c3)C2)cc1 (stereo unspecified),inactive: 78%
9,CCCCC(CC)C(=O)Nc1ccccc1C#N (stereo unspecified),inactive: 93%
10,Cc1ccc(C2C(=O)N(C3CCC(C)CC3)CC(=O)N2C2CCCC2)cc1 (stereo unspecified),inactive: 83%
11,COc1ccccc1-c1nn2c(=O)cc(CN3CCN(C(=O)Nc4ccc(C)cc4Cl)CC3)nc2s1,inactive: 78%
12,CCOc1ccc(-n2c(=O)c3c(C)c(C)sc3n(CC(=O)C(C)(C)C)c2=O)cc1,inactive: 121%
13,O=C1CCCN1CCCNc1ccc(Cl)nn1,inactive: 103%
14,Cc1cc(NS(=O)(=O)c2ccc(NC(=O)COc3c(C)ccc(C)c3C)cc2)nc(C)n1,inactive: 51%
15,CCOc1ccc(NC(=O)Cn2c(=O)n(CCCC(=O)NCCc3ccc(Cl)cc3)c(=O)c3ccccc32)cc1,inactive: 107%
16,Cc1ccccc1-c1noc(-c2ccc(NCC3CCCO3)c([N+](=O)[O-])c2)n1 (stereo unspecified),inactive: 82%
17,COc1ccccc1CNC(=O)CC(c1ccc(F)cc1)N1Cc2ccccc2C1=O (stereo unspecified),inactive: 71%
18,Cc1cccc(N2CCN(S(=O)(=O)c3ccc(-c4cnc(C5CC5)o4)cc3)CC2)c1C,inactive: 77%
19,Cc1ccc(Cn2c(SCC(=O)NCc3ccccc3)nc3ccsc3c2=O)cc1,inactive: 92%
20,CCOC(=O)c1cccc(NC(=O)C(C)n2nc(C)c3c(C)n(-c4ccccc4)nc3c2=O)c1 (stereo unspecified),inactive: 101%
21,COc1ccc(-c2[nH]c(-c3ccc(O)cc3)nc2-c2ccccc2)cc1,active: 3%
22,Cc1ccc([N+](=O)[O-])cc1NC(=O)CN(c1ccccc1)S(=O)(=O)N(C)C,inactive: 58%
